Data published in PubChem BioAssay AID624417 (National Center for Advancing Translational Sciences (NCATS), 2012).
Screen size: about 410,000 compounds; about 6,400 (1.6%) were called active. This list was built around the results that the source calls inconclusive (neither active nor inactive); the mix of calls is not that of the screen. The call rests on the fitted dose curve; in most records, active means well fitted inhibition curve with a large enough effect; inconclusive means small, poorly fitted or top-dose-only effect; inactive means no such curve, though single readings can be large or run the other way. Potencies of inconclusive entries are left out as doubtful fits.

Target: Glucagon-like peptide 1 receptor (Homo sapiens) (UniProt P43220)
Assay: qHTS of GLP-1 Receptor Inverse Agonists (Inhibition Mode); further: nearly all actives have a fitted effect of over 55% in size
Conditions: HEK293 GLP-1R CRE-luciferase, luminescence, 24 h, GLP-1R form is constitutively active; activity change, negative = inhibition: at 38.3 µM (top of the series) unless noted
How it was run: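 qHTS in 1536-well format: reporter HEK293 cells expressing constitutive GLP-1R activity in DMEM + 10% Nu serum, 24 hr with compounds at 37 deg C, luminescence read after 12 min with detection reagent.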
On the % scale 0 is the no-effect control and ±100 the full control effect; potency means the concentration at half of the fitted maximal effect; tags describe the fitted curve by direction and shape.

UniProt P43220, sequence (P43220 whole entry, looked up): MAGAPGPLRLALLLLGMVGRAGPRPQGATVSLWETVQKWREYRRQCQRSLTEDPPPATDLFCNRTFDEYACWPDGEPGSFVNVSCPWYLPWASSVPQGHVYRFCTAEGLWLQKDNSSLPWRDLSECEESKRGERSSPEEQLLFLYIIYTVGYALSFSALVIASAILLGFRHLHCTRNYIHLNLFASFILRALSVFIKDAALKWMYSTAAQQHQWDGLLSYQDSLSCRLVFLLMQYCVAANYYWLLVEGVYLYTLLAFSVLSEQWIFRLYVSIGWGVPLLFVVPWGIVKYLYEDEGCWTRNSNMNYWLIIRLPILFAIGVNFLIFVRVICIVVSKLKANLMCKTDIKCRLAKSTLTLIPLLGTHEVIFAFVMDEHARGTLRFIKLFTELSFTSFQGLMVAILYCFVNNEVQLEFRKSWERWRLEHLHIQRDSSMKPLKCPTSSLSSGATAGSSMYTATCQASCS

Q: With `Cc1ccccc1N1C(=O)C(Oc2ccc(Cl)cc2)C1CNCCCOC(C)C` (stereo not drawn) as the compound, how does the Potency read?
A: inconclusive [inhibitor, partial curve, poor fit]

Q: With `CC(C)[C@H](NC(=O)OCc1ccccc1)C(=O)OCC(=O)NC1CCCCC1` as the compound, how does the Potency read?
A: inconclusive [inhibitor, single point]

Q: With `O=C(COc1cccc2cccnc12)Nc1nccs1` as the compound, how does the Potency read?
A: inconclusive [inhibitor, full curve, poor fit]

Q: How did the “activity change, negative = inhibition” value turn out when `COC(=O)c1sc(S(=O)(=O)N2CCC(C(N)=O)CC2)c(C(=O)OC)c1C` was run?
A: inactive: 25.6%

Q: With `CCC(C)C(NC(=O)c1ccccc1NC(=O)c1ccco1)C(=O)NC1CCCCC1` (stereo not drawn) as the compound, how does the Potency read?
A: inconclusive [inhibitor, single point]

Q: `COc1ccc(NC(=O)C2CCN(c3cc(C)nc(-c4ccccc4)n3)CC2)cc1` was tested. Which Potency did it give?
A: inconclusive [inhibitor, partial curve, poor fit]

Q: How did the Potency turn out when `CCCCC(CC)CNC(=O)c1ccc2c(=O)n(CCOC)c(=O)[nH]c2c1` (stereo not drawn) was run?
A: inconclusive [inhibitor, partial curve, poor fit]

Q: For `CCc1cc2c(=O)oc(-c3ccccc3F)nc2s1`, which “activity change, negative = inhibition” value is on record?
A: inactive: 22.7%

Q: Which Potency does the source give for `Cc1ccc(C(=O)N/C(=C\c2cn(S(=O)(=O)N(C)C)c3ccccc23)C(=O)NCCCN2CCOCC2)cc1` here?
A: inconclusive [inhibitor, single point]

Q: With `Cc1ccc(N(CC(=O)NCC(C)c2ccccc2)S(=O)(=O)N(C)C)cc1` (stereo not drawn) as the compound, how does the Potency read?
A: inconclusive [inhibitor, single point]

Q: How did the “activity change, negative = inhibition” value turn out when `O=C(CN1CCOCC1)Nc1ccc(S(=O)(=O)N2CCCCCC2)cc1` was run?
A: inactive: 0%

Q: With `FC(F)(F)c1nc(-c2cccs2)ncc1-c1nnnn1-c1ccc(Cl)cc1` as the compound, how does the Potency read?
A: active: 7.08 µM

Q: For `Cc1ccc(/C(O)=C2\C(=O)C(=O)N(CC(C)O)C2c2ccc(N(C)C)cc2)cc1` (stereo not drawn), which “activity change, negative = inhibition” value is on record?
A: inactive: 5.58%

Q: `Nc1cc2sc(-c3ccc(C(=O)O)cc3)nc2cc1Cl` was tested. Which Potency did it give?
A: inconclusive [inhibitor, single point]

Q: Which “activity change, negative = inhibition” value does the source give for `COc1ccc(N(CC(=O)NC2CCCCCC2)S(=O)(=O)c2c(C)nn(C)c2C)cc1` here?
A: inactive: 4.94%

Q: `COc1ccc(/C=C2\SC(=S)N(CCCC(=O)N3CCOCC3)C2=O)cc1` was tested. Which Potency did it give?
A: inconclusive [inhibitor, partial curve, poor fit]

Q: Which Potency does the source give for `COc1ccc(/C(=N/Nc2ncnc3ccccc23)C(=O)O)cc1` here?
A: inconclusive [inhibitor, single point]

Q: `CCOC(=O)N1CCN(C2CC(=O)N(c3ccc(Oc4ccccc4)cc3)C2=O)CC1` (stereo not drawn) was tested. Which “activity change, negative = inhibition” value did it give?
A: inactive: -3.99%

Q: With `O=C(O)CCCNc1ccc(S(=O)(=O)Nc2ccccc2C(=O)O)cc1C(=O)O` as the compound, how does the “activity change, negative = inhibition” value read?
A: inactive: 1.98%

Q: `O=C(Nc1ccc(F)cc1)OCCOc1ccc(Br)cc1` was tested. Which Potency did it give?
A: inconclusive [inhibitor, single point]

Q: How did the Potency turn out when `CN1CCN(C(=O)c2ccc3c(c2)N(Cc2c(F)cccc2Cl)C(=O)c2ccccc2S3)CC1` was run?
A: inconclusive [inhibitor, single point]

Q: For `CCc1sc(Nc2ccc(Cl)cc2)nc1-c1cc2cccc(OC)c2oc1=O`, which Potency is on record?
A: inconclusive [inhibitor, partial curve, poor fit]

Q: `CCCCCCn1c(=O)n2n(c1=O)C[C@]1(OC(=O)NC3CCCC3)CN(S(=O)(=O)c3ccc(C)cc3)C[C@]1(O)C2` was tested. Which Potency did it give?
A: inconclusive [inhibitor, single point]

Q: With `Cc1cc(OCC(=O)Nc2cc(-c3nc4ccccc4[nH]3)ccc2C)ccc1Cl` as the compound, how does the “activity change, negative = inhibition” value read?
A: inactive: -1.57%

Q: For `CCN(CC)C(=O)[C@H]1C[C@H](CC(=O)NCCN2CCOCC2)C(=O)N2CCc3c([nH]c4ccc(Cl)cc34)[C@]12C`, which “activity change, negative = inhibition” value is on record?
A: inactive: 12%

Q: `COc1cccc(NC(=O)CSc2nnc(-c3cc(C)n(-c4ccccc4)c3C)o2)c1` was tested. Which Potency did it give?
A: inconclusive [inhibitor, full curve, poor fit]

Q: With `NC(N)=N/N=C/c1ccc(Cl)c([N+](=O)[O-])c1` as the compound, how does the Potency read?
A: inconclusive [inhibitor, single point]

Q: For `CC(C(=O)Nc1ccc(F)c(Cl)c1)N1Cc2ccccc2C1=O` (stereo not drawn), which “activity change, negative = inhibition” value is on record?
A: inactive: -19.8%

Q: How did the Potency turn out when `OC(c1ccc(Cl)c(Cl)c1)c1ncc(-c2ccccc2Cl)[nH]1` (stereo not drawn) was run?
A: inconclusive [inhibitor, single point]

Q: How did the “activity change, negative = inhibition” value turn out when `CNC(=O)/C(C#N)=C/c1cn(CC(=O)NCc2ccco2)c2ccccc12` was run?
A: inactive: 14.9%

Q: With `CCN(CC)C(=S)SCc1csc(CC(=O)Nc2ccccc2C)n1` as the compound, how does the Potency read?
A: inconclusive [inhibitor, single point]

Q: How did the Potency turn out when `COc1ccc(OCC(=O)Nc2c3c(nn2C(C)(C)C)CSC3)cc1` was run?
A: inconclusive [inhibitor, partial curve, poor fit]

Q: `CCC(CC)C(=O)N1CC(=O)Nc2ccc(Br)cc2C1c1ccccc1` (stereo not drawn) was tested. Which Potency did it give?
A: inconclusive [inhibitor, single point]

Q: How did the Potency turn out when `O=C(Nc1cc(F)ccc1F)C1CCCN(c2ncnc3c2nc2n3CCCCC2)C1` (stereo not drawn) was run?
A: inconclusive [inhibitor, full curve, poor fit]

Q: `CCc1nc2c(OCc3cc(Cl)cc(Cl)c3)cccn2c1N(C)C(=O)c1ccc(C)cc1` was tested. Which Potency did it give?
A: inconclusive [inhibitor, single point]

Q: With `CNC(=S)Nc1cc2oc3ccccc3c2cc1OC` as the compound, how does the Potency read?
A: inconclusive [inhibitor, single point]

Q: For `O=C(c1ccc(COc2c(F)c(F)c(F)c(F)c2F)o1)N1CCN(Cc2ccc3c(c2)OCO3)CC1`, which Potency is on record?
A: inconclusive [inhibitor, partial curve, poor fit]

Q: Which Potency does the source give for `CN(Cc1ccccc1)C(=O)c1ccc(S(=O)(=O)N(C)c2ccccc2)cc1` here?
A: inconclusive [inhibitor, partial curve, poor fit]

Q: Which Potency does the source give for `CCn1c(-c2csc(C(C)C)c2)n[nH]c1=S` here?
A: inconclusive [inhibitor, single point]

Q: For `CCN(CC)CCNc1nc(C(F)(F)F)nc2c1nnn2Cc1ccccc1`, which Potency is on record?
A: inconclusive [inhibitor, partial curve, poor fit]

Q: Which Potency does the source give for `CCNC(=O)C12CCC(C)(c3nc4cc(C)c(C)cc4nc31)C2(C)C` (stereo not drawn) here?
A: inconclusive [inhibitor, single point]

Q: `Fc1ccc(CNC(=S)Nc2cccc(Cl)c2)cc1` was tested. Which Potency did it give?
A: inconclusive [inhibitor, partial curve, poor fit]

Q: How did the Potency turn out when `CN(c1ccccc1)S(=O)(=O)c1ccc(C(=O)N2CCN(c3ccccc3Cl)CC2)cc1` was run?
A: inconclusive [inhibitor, single point]

Q: `Cc1onc(-c2c(F)cccc2Cl)c1C(=O)Nc1nc2ccccc2[nH]1` was tested. Which Potency did it give?
A: inconclusive [inhibitor, single point]

Q: With `Cc1ccc(S(=O)(=O)N2C[C@@H]3[C@H]4CC[C@H](C4)[C@@H]3[C@@H](C)[C@@H]2c2ccco2)cc1` as the compound, how does the Potency read?
A: inconclusive [inhibitor, partial curve, poor fit]

Q: Which “activity change, negative = inhibition” value does the source give for `Cc1cc(S(=O)(=O)C(CNC(=O)COc2ccccc2)c2cccs2)ccc1F` (stereo not drawn) here?
A: inactive: -15.5%

Q: How did the Potency turn out when `Cc1cc(Cl)cc(C)c1OCC(=O)NC1CCCCCC1` was run?
A: inconclusive [inhibitor, partial curve, poor fit]

Q: With `O=C(CNC(=O)c1ccco1)Nc1ccc2c(c1)OCCO2` as the compound, how does the Potency read?
A: inconclusive [inhibitor, single point]

Q: For `COCCn1c(NC(=S)NC(=O)C2CC2)cc(=O)[nH]c1=O`, which activity change, negative = inhibition is on record?
A: inactive: 5.46% [at 0.307 µM]

Q: Which Potency does the source give for `CC(C)[C@H](NC(=O)c1ccc(Cl)cc1)C(=O)OCC(=O)N1CCN(c2ccccc2)CC1` here?
A: inconclusive [inhibitor, partial curve, poor fit]

Q: With `CCN(CC)C(=O)COc1ccc(-c2nnc(N3CCCCC3)c3ccccc23)cc1` as the compound, how does the “activity change, negative = inhibition” value read?
A: inactive: -20%

Q: For `NNC(=O)c1cc(-c2cccs2)nc2ccccc12`, which Potency is on record?
A: inconclusive [inhibitor, full curve, poor fit]

Q: For `Cc1ccc(CN2CCC(CNC(=O)c3cc4ccc5cccnc5c4[nH]3)CC2)cc1`, which Potency is on record?
A: inconclusive [inhibitor, single point]

Q: How did the “activity change, negative = inhibition” value turn out when `CCCn1c(=NC(=O)c2ccco2)c(C(=O)OCC)cc2c(=O)n3ccccc3nc21` was run?
A: inactive: 169%

Q: With `O=C(C[C@H]1C[C@H](C(=O)N2CCOCC2)[C@@]2(CCC3CCCC3)c3[nH]c4cc(-c5ccco5)ccc4c3CCN2C1=O)NCCCn1ccnc1` as the compound, how does the Potency read?
A: inconclusive [inhibitor, single point]

Q: For `O=C(CN1CCN(c2ccc(F)cc2)CC1)c1ccc(O)cc1O`, which Potency is on record?
A: inconclusive [inhibitor, single point]

Q: For `COc1ccccc1N1CCN(C(=O)NCc2cccc(C(F)(F)F)c2)CC1`, which Potency is on record?
A: inconclusive [inhibitor, partial curve, poor fit]

Q: Which Potency does the source give for `COCCNCCOc1ccccc1-c1ccccc1` here?
A: inconclusive [inhibitor, partial curve, poor fit]

Q: For `CCN(CC)S(=O)(=O)c1cccc(NC(=O)c2cncc(Br)c2)c1`, which Potency is on record?
A: inconclusive [inhibitor, single point]

Q: How did the Potency turn out when `Cc1ccc(C(=O)/C=C/c2cn(CC(O)CN3CCc4ccccc43)c3ccccc23)cc1` (stereo not drawn) was run?
A: inconclusive [inhibitor, single point]

Q: How did the Potency turn out when `O=C(CCc1ccccc1)NNc1ccc(F)cc1` was run?
A: inconclusive [inhibitor, full curve, poor fit]

Q: Which “activity change, negative = inhibition” value does the source give for `CCCn1cnc2cc(NCc3ccccn3)ccc21` here?
A: inactive: -30.3%

Q: Which Potency does the source give for `COc1cc(C(O)c2nc(-c3cc4ccccc4o3)cs2)ccc1F` (stereo not drawn) here?
A: inconclusive [inhibitor, partial curve, poor fit]
